Test results reported in PubChem BioAssay AID488969 (Vanderbilt High Throughput Screening Facility, 2010).
Whole data set: some 110,000 compounds, median “z-score” near -0.1, cut for the highest 2% near 2. The list shows a part of the results.

Biological target: Metabotropic glutamate receptor 8 (Rattus norvegicus) (UniProt P70579)
Test: mGluR8 Gi/Go-coupled signaling modulation – cell-based, rat, thallium flux, HTS, primary screen (AID 488969)
Conditions: HEK293 rat mGluR8, GIRK (G protein-gated inwardly rectifying potassium channel) thallium flux, FluoZin2; at 10 µM; stronger effect = higher value; submaximal glutamate (EC20) added with thallium

UniProt P70579, sequence (P70579 whole entry, looked up): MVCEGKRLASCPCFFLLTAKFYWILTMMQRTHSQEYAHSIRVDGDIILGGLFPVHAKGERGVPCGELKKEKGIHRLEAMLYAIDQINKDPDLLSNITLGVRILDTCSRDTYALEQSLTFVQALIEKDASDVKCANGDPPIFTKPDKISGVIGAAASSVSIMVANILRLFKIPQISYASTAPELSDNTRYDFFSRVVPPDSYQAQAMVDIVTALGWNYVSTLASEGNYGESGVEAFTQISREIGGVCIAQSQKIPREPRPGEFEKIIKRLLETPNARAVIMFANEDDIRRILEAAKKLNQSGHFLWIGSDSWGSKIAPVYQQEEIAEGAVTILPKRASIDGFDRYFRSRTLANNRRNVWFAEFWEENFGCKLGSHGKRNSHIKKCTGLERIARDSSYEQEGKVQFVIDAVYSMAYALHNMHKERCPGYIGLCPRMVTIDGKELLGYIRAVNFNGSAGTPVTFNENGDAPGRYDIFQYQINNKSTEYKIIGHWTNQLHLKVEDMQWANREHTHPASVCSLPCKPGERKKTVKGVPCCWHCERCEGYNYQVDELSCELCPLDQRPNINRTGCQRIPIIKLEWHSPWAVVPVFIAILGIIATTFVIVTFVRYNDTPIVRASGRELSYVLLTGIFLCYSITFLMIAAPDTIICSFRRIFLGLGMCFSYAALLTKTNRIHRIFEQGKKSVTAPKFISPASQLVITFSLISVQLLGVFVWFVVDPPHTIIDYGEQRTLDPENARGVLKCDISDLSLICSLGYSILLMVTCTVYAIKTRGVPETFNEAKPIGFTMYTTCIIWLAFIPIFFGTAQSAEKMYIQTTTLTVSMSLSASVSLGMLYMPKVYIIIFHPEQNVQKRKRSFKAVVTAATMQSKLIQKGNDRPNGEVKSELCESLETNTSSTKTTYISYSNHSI

| SMILES | z-score |
| --- | --- |
| CCOc1ccc(NC(=O)c2cccnc2C(=O)O)cc1 | -0.313 |
| Cc1nn(-c2nc3ccccc3[nH]2)c(N)c1-c1ccc(Cl)cc1 | 0.65 |
| O=C1OCC2=C1C(c1ccc3c(c1)OCO3)Sc1ccccc1N2 (stereo not given) | -0.129 |
| COc1ccc(NC(=O)C2CCN(C(=O)c3ccc(OC)cc3)CC2)cc1 | 0.172 |
| Cc1cc(C)nc(SCC(=O)c2ccc(O)cc2O)n1 | 1.34 |
| NC(=O)c1ccccc1NS(=O)(=O)c1ccccc1 | -0.173 |
| CCC(=O)c1ccc(OCC(=O)Nc2nn3cnnc3s2)cc1 | 0.196 |
| CCOC(=O)c1c(N)n[nH]c1-c1ccccc1 | -0.153 |
| Cc1ccc(-n2c(SCC(=O)Nc3cc(S(=O)(=O)N4CCOCC4)ccc3Cl)nc3ccccc3c2=O)cc1 | -0.483 |
| CCc1cc(C(=O)c2ccc(C)cc2)c(NC(=O)CCl)s1 | -0.0255 |
| O=C(NS(=O)(=O)c1ccccc1)c1ccccc1F | -0.324 |
| Cc1nn(CC(=O)N2N=C(C(F)F)CC2(O)C(F)F)c(C)c1[N+](=O)[O-] (stereo not given) | 0.014 |
| COc1ccc(N2CCN(S(=O)(=O)c3cccs3)CC2)cc1 | 0.182 |
| O/N=C/c1ccc(-c2cc(Cl)ccc2Cl)o1 | -0.00728 |
| O=C(Nc1ccc2c(c1)OCO2)c1ccc(NC2CC2)c([N+](=O)[O-])c1 | -0.343 |
| Cc1cccc(/C=N/n2c(C)cc(C)c(C#N)c2=O)c1 | -0.0821 |
| COCCSc1nnc(NC(=O)Cc2ccccc2OC)s1 | 0.31 |
| CCOc1ccc(C2OC(=O)Cc3cc(OC)c(OC)cc32)cc1 (stereo not given) | 0.137 |
| S=C1NNC2(NN1)C1CC3CC(C1)CC2C3 | 0.608 |
| COc1ccc(NS(=O)(=O)c2ccc(NC(=O)C3CCCO3)cc2)cc1 (stereo not given) | 0.407 |
| CCN1CCN(c2cc(C)c3cc(NC(=O)c4cnccn4)ccc3n2)CC1 | 1.64 |
| COC(=O)COc1ccc(S(=O)(=O)N2CCc3ccccc3C2)cc1 | -0.687 |
| Cc1cc(C)cc(NS(=O)(=O)c2ccc3oc(=O)ccc3c2)c1 | 2.23 |
| Cc1ccc(S(=O)(=O)CCC(=O)Nc2cccc(C)c2)cc1 | -0.12 |
| CCc1ccc(OCCNC(=O)c2ccc(S(=O)(=O)N(C)C)cc2)cc1 | -0.269 |
| O=C(Oc1c(CN2CCOCC2)cc(Cl)c2cccnc12)c1ccc(F)cc1 | -0.719 |
| O=C(NCC1CCCO1)c1ccc2c(c1)C(=O)N(C1CCCCC1)C2=O (stereo not given) | -0.445 |
| Cc1ccc(S(=O)(=O)NC(C(=O)OCC(=O)NC2CCS(=O)(=O)C2)C(C)C)cc1 (stereo not given) | -1.96 |

| SMILES | z-score |
| --- | --- |
| COc1ccccc1C(=O)NNC(=O)c1ccc(F)cc1 | 0.0416 |
| O=C(Nc1ccc2c(c1)OCO2)c1ccc(CN2CCOCC2)cc1 | 0.125 |
| Cc1ccc2cc(C)c3nnc(SCC(=O)N4CCCc5ccccc54)n3c2c1C | -0.646 |
| COc1ccccc1C(c1nnnn1C(C)(C)C)N1CCCc2ccccc21 (stereo not given) | -0.475 |
| CCOc1ccc(C(=O)Nc2cccc(C(=O)O)c2C)cc1Cl | -0.271 |
| Cc1cc(C)cc(N(CC(=O)Nc2c(C)n(C)n(-c3ccccc3)c2=O)S(C)(=O)=O)c1 | -0.0377 |
| CN(C)S(=O)(=O)c1cccc(C(=O)OCC(=O)c2ccc3c(c2)NC(=O)CO3)c1 | -0.177 |
| CCC(=O)OC1=C2C(=Nc3c(c(=O)n(C)c(=O)n3C)C2c2ccccc2)c2ccccc21 (stereo not given) | 1.18 |
| CCOc1ccc(NC(=O)c2ccc3snnc3c2)cc1 | -0.126 |
| CCOc1ccc(NC2=C(OC)C(=O)c3ccccc3C2=O)cc1 | -0.209 |
| CCOC(=O)C1C(=O)NC(c2ccccc2)=NC1c1ccc(C(C)C)cc1 (stereo not given) | 0.171 |
| Cc1ccc(S(=O)(=O)/N=C(\N)Nc2nc(C)c3cc(C)c(C)cc3n2)cc1 | -0.266 |
| Cc1ccc(Cn2nnc3c(=O)[nH]c(C4CCN(S(=O)(=O)c5ccccc5)CC4)nc32)cc1 | 0.177 |
| O=C(CNC(=O)c1cccc(Br)c1)NCCc1nc2ccccc2[nH]1 | 0.436 |
| Cc1ccccc1Oc1cc(-n2ncc(Cl)c(Cl)c2=O)ncn1 | -1.13 |
| Cn1c(=O)n(C)c2cc([N+](=O)[O-])c(N3CCN(C(=O)c4ccc(Cl)cc4)CC3)cc21 | 0.056 |
| Cc1n[nH]c(=O)nc1Nc1ccc(O)cc1 | 0.142 |
| CCCc1cc2c(=O)c(-c3ccccn3)coc2cc1OC | 1.67 |
| Cc1cccc(CCNS(=O)(=O)c2ccc3c(c2)n(C)c(=O)c(=O)n3C)c1 | -0.409 |
| O=C(Cc1ccc(Cl)cc1)Nc1ccc2oc(-c3ccncc3)nc2c1 | 0.0314 |
| CCOC(=O)CN1NC2(CCCCC2)NC1=S | 0.284 |
| COc1ccc(OC)c(C2=NOC(C(=O)Nc3cccnc3)C2)c1 (stereo not given) | -0.238 |
| Cc1ccc(OCC(=O)O/N=C(\N)Cc2ccc(Cl)cc2)cc1 | -0.397 |
| O=C(CSc1nnnn1-c1ccccc1)Nc1nsc(-c2ccccc2)n1 | -1.31 |
| O=C(NCCCN1CCN(CCCNC(=O)c2cc([N+](=O)[O-])ccc2Cl)CC1)c1cc([N+](=O)[O-])ccc1Cl | -0.171 |
| CC(C)n1c(SCc2ccccc2F)nc2c1c(=O)n(C)c(=O)n2C | -0.164 |
| C=CCc1ccc(OCCOc2cccc(/C=N/n3cnnc3)c2)c(OC)c1 | -0.025 |
